Hit rate of the full screen: of about 350,000 compounds, about 31,000 (8.9%) were called active. This list was built around the results that the source calls inconclusive (neither active nor inactive); the mix of calls is not that of the screen. Calls come from the whole dose curve; as a rule, active = well fitted inhibition curve with a large enough effect; inconclusive = small, poorly fitted or top-dose-only effect; inactive = no such curve, though single readings can be large or run the other way. Potencies of inconclusive entries are doubtful fits and often do not repeat.
biological target: Histone-lysine N-methyltransferase EHMT2 (Homo sapiens) (UniProt Q96KQ7); experiment: qHTS Assay for Inhibitors of Histone Lysine Methyltransferase G9a; details: G9a H3K9 monomethylation, AlphaScreen, 2 h; activity, negative = inhibition: at 59 µM (top of the series) unless noted; note: nearly all actives have a fitted effect of over 75% in size
Method in brief: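 Chemiluminescent proximity detection of H3K9 monomethylation, read after 10 min bead incubation in the dark. Reaction: 20 nM G9a, 500 nM biotin-H3K9 peptide, 20 uM SAM cofactor, 2 h, room temperature, following 15 min enzyme-compound preincubation.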
% is set by controls: 0 for no effect and ±100 for the full control effect; potency is the fitted concentration of half-maximal effect; tags give direction and shape of the fitted curve.

Sequence of UniProt Q96KQ7 (Q96KQ7 whole entry, looked up): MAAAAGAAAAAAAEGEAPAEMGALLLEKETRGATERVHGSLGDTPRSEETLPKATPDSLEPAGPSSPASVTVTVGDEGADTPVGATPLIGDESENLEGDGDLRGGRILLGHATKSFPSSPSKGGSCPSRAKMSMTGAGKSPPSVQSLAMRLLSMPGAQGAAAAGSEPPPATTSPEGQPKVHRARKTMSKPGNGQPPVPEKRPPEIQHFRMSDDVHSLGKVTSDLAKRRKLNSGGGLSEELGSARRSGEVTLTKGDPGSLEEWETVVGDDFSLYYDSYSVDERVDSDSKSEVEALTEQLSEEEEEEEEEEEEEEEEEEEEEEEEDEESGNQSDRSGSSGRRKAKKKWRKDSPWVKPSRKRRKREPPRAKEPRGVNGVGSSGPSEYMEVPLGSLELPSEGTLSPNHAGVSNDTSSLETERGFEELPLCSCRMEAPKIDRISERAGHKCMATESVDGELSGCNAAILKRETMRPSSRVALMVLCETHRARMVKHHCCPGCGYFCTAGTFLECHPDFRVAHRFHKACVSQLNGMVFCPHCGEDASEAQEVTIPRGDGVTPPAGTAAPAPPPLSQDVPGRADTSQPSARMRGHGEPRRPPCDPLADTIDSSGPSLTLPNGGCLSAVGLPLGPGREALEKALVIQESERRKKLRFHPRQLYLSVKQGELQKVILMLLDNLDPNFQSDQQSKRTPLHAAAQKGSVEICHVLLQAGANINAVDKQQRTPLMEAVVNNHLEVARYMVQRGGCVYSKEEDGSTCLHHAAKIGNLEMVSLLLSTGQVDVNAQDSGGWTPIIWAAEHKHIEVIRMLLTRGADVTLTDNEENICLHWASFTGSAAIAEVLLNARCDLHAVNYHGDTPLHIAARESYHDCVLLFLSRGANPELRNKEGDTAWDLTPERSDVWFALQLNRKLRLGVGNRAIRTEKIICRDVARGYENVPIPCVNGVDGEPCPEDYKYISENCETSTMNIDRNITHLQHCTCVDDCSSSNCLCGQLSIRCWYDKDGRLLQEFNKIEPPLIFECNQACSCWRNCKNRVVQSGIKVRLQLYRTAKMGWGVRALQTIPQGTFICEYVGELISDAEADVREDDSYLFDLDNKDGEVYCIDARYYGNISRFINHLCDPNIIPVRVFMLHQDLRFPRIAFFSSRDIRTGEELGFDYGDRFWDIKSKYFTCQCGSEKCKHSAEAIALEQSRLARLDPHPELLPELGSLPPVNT

| SMILES | Potency | activity, negative = inhibition |
| --- | --- | --- |
| CCN(CC)c1ccc2oc(=O)c(C)nc2c1 | active: 11.2 µM | – |
| O=C(Nc1ccc(F)cc1F)N1CCC(c2nc3ccccc3o2)CC1 | inconclusive: 89.1 µM [inhibitor, partial curve, poor fit] | – |
| Cc1ccccc1CS(=O)(=O)CC1Nc2ccc(C(=O)NCc3ccc(Cl)cc3)cc2NC1=O (stereo not given) | active: 10 µM | – |
| Cc1cnn(C(=S)NCc2ccco2)c1 | inconclusive: 7.08 µM [inhibitor, single point] | – |
| Cc1ccc(-n2nc(C)c(C(=O)NCCCN3CCN(c4ccc(F)cc4)CC3)c2-n2cccc2)cc1 | inconclusive: 35.5 µM [inhibitor, single point] | – |
| COC(=O)c1ccc(OCC(O)CN2CCN(C(=O)c3ccco3)CC2)c(OC)c1 (stereo not given) | inactive | – |
| O=C(NCc1n[nH]c(=S)n1-c1ccc(Br)cc1)c1ccc(S(=O)(=O)N2CCCCC2)cc1 | active: 7.94 µM | – |
| Nc1nc2ccc(Oc3ccccc3)cc2s1 | inconclusive: 2 µM [inhibitor, partial curve, poor fit] | – |
| CCN(CC)CCOC(=O)c1ccc(NC(=O)Cn2ncc3c([nH]c4ccc(C)cc43)c2=O)cc1 | inactive | – |
| CCOc1ccc(NS(=O)(=O)c2ccc3[nH]cc(C(=O)N(C)Cc4ccccc4)c(=O)c3c2)cc1 | inconclusive: 2.82 µM [inhibitor, full curve, poor fit] | – |
| O=C(Nn1c(=S)[nH]c2ccccc2c1=O)c1ccncc1 | inconclusive: 0.794 µM [inhibitor, partial curve, poor fit] | – |
| COc1ccc(S(=O)(=O)N2CCN(Cc3ccc4c(c3)OCO4)CC2)cc1 | inactive | – |
| O=[N+]([O-])c1ccc(O)c(C(C#Cc2ccccc2)N2CCOCC2)c1 (stereo not given) | inconclusive: 35.5 µM [inhibitor, single point] | – |
| CCc1ccc(NS(=O)(=O)c2ccc3[nH]cc(C(=O)NCC4CCCO4)c(=O)c3c2)cc1 (stereo not given) | inconclusive: 1.12 µM [inhibitor, full curve, poor fit] | – |
| CCC1(c2ccccc2)NC(=O)N(CC(=O)Nc2cccc(S(=O)(=O)N3CCCCC3)c2)C1=O (stereo not given) | active: 44.7 µM | – |
| CCOC(=O)C1C(=O)C(C(C)=O)C(=O)CC1CC(C)SCC (stereo not given) | inconclusive: 2 µM [inhibitor, full curve, poor fit] | – |
| C=CC#CC[N+]1(CC#Cc2ccccc2)CCOCC1 | inconclusive: 25.1 µM [inhibitor, single point] | – |
| CC(=O)N1CCc2c(sc3c2c(=O)n(-c2ccccc2)c(=O)n3CC(=O)Nc2ccccc2C)C1 | inactive | – |
| Cc1cccc(C)c1NC(=S)N/N=C1\CC2CC=CC12 (stereo not given) | active: 12.6 µM | – |
| Cc1cccc(NC(=O)CN(C)C(=O)c2ccc3ccccc3n2)c1C | inconclusive: 79.4 µM [inhibitor, single point] | – |
| O=C(Cn1cnc([N+](=O)[O-])n1)c1ccc(O)c(O)c1 | active: 8.91 µM | – |
| O=C(COC(=O)C1COc2ccccc2O1)Nc1cccc(S(=O)(=O)N2CCCCC2)c1 (stereo not given) | inconclusive: 50.1 µM [inhibitor, partial curve, poor fit] | – |
| Cc1cnc(C(=O)OCC(=O)NC2CCCCC2)cn1 | inconclusive: 50.1 µM [inhibitor, partial curve, poor fit] | – |

| SMILES | Potency | activity, negative = inhibition |
| --- | --- | --- |
| COc1ccc(C(=O)NCc2cn3c(C)csc3n2)cc1OC | inconclusive: 20 µM [inhibitor, single point] | – |
| Cc1ccccc1NC(=O)c1cccc(N2C(=O)C3C4CC(C(Br)C4Br)C3C2=O)c1 (stereo not given) | – | inactive: -11.5% [at 0.501 µM] |
| COc1ccc(-c2cc(C(=O)Nc3cccnc3)c3ccccc3n2)cc1OC | inconclusive: 31.6 µM [inhibitor, partial curve, poor fit] | – |
| CCN(CC)CCCNCC(=O)Nc1ccc(OC)c(Cl)c1 | active: 8.91 µM | – |
| CCOC(=O)c1ccc(N2C(=O)CC(C3CCCO3)C2=O)cc1 (stereo not given) | inactive | – |
| Cc1cc(-c2n[nH]c(=S)n2Cc2ccccc2)cs1 | active: 1.26 µM | – |
| O=C(NCCN1C(=O)S/C(=C\c2cccnc2)C1=O)C1=NN(c2ccccc2)C(=O)CC1 | inactive | – |
| CCOc1ccccc1NC1c2ccccc2C(=O)N1c1cccnc1 (stereo not given) | active: 79.4 µM | – |
| c1cncc(CSc2ccc(-c3ccc4c(c3)OCO4)nn2)c1 | active: 50.1 µM | – |
| CCN1CCN(C(=O)C2CCN(S(=O)(=O)c3ccc(SC)cc3)CC2)CC1 | inconclusive: 35.5 µM [inhibitor, partial curve, poor fit] | – |
| Cn1c(=O)c2c(O)c([N+](=O)[O-])c(=O)n(C)c2n(C)c1=O | inconclusive: 89.1 µM [inhibitor, partial curve, poor fit] | – |
| O=C(NCc1cccnc1)c1cccc(-c2cc3ccccc3oc2=O)c1 | inconclusive: 0.251 µM [inhibitor, partial curve, poor fit] | – |
| Cc1oc2ncn(CC(C)C)c(=O)c2c1C(=O)NCCCN1CCCCC1 | inactive | – |
| COc1cc(C(=O)OCC(=O)NC2CCS(=O)(=O)C2)ccc1OCc1c(C)noc1C (stereo not given) | inactive | – |
| Cc1cc(C)n(C(C)CNS(=O)(=O)c2ccc(Cl)cc2)n1 (stereo not given) | inactive | – |
| CCOC(=O)c1ccc2oc(=O)n(Cc3ccccc3)c2c1 | inactive | – |
| Clc1ccc(COc2ccccc2CNCc2cccnc2)cc1 | inconclusive: 39.8 µM [inhibitor, single point] | – |
| COc1ccc(N2CCN(C(=O)c3sc4nc(-c5ccc(F)cc5)cn4c3C)CC2)cc1 | inconclusive: 70.8 µM [inhibitor, partial curve, poor fit] | – |
| O=C(c1cccs1)N1CCc2c([nH]c3ccccc23)C1c1ccc(Cl)cc1 (stereo not given) | inconclusive: 17.8 µM [inhibitor, partial curve, poor fit] | – |
| NC(=O)c1ccc(NC(=O)COC(=O)c2cccc(Oc3ccccc3)c2)cc1 | inactive | – |
| COc1ccc(N2CCN(Cc3cc(=O)oc4ccc5ccccc5c34)CC2)cc1 | inconclusive: 39.8 µM [inhibitor, single point] | – |
| CN1CCN(CCOc2ccc(Cc3ccccc3)cc2)CC1 | inconclusive: 70.8 µM [inhibitor, single point] | – |
